Assay results taken from PMC12136788.
The list shows a part of the results.

T1: UNK ZnF1-3 (human, UniProt Q9C0B0 31-174)
T1 sequence: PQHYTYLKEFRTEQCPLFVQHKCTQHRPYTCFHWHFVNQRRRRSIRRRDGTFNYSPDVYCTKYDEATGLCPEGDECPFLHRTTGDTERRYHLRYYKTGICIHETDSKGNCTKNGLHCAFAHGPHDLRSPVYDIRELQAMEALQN

B1: chr8:104447970:104447971:+_ENSG00000164934_ENST00000297579|hu_hu|hu_hu_hu_mus_False|1_88 (ssRNA)
RNA: GGGAGUUCUACAGUCCGACGAUCAUACACUUCCCUGCUUCGGCUCUUGUCUACAGGAAAGAUUCUAAUAGACUUAUCAAAGCUGGCAGACACAAAUUCCUUCCCAGUGGGAGAGUAGUCCACAUCAAGUACUGCAGAUACAUGCAACAGAGGAUUGAGCAUCA
B2: chr5:21408736:21408737:-_ENSMUSG00000042453_ENSMUST00000161356|mus_hu|FALSE|FALSE (ssRNA)
RNA: GGGAGUUCUACAGUCCGACGAUCGUUGACAGAGUUGUAGAUGGUGGCUUCAUGGAACUGGAAAGGGGAGCAGCCAAUGCUGUUAGAAGAGGAAGGAAGGCACUGGGUCUGUACGAGCUGCCAGGAAUCCGAUCUUGCAUCCUUCAACAGAGGAUUGAGCAUCA
B3: chr16:94664741:94664742:+_ENSMUSG00000040785_ENSMUST00000117648|mus_hu|mus_mus_mus_hu_False|38_78 (ssRNA)
RNA: GGGAGUUCUACAGUCCGACGAUCUGGUACUGAUCUUGGUAGCUGAUAUUCAGGAGAAAUGUUGGCCAAGGGUGUAUAUAUGCUGGUGUACUGGGGCAGGCUAGGUAACACGUUUAUGUAUGCUGGCGGUGUCUGGGUGAUAUCCAACAGAGGAUUGAGCAUCA
B4: chr1:135975629:135975630:-_ENSMUSG00000020423_ENSMUST00000020692|mus_mus|FALSE|FALSE (ssRNA)
RNA: GGGAGUUCUACAGUCCGACGAUCGAAACCCACGGCGGCGGCGAUCUCCGGGAGCAUGUCGGUUCUCUUCCCGUGGCUCAUACCGGUGGCUGAGGAAGUAGCUGUAUUAGAACGAUGAUGACGGUCUGGCCACCUCUCGGGCUCCAACAGAGGAUUGAGCAUCA
B5: 72952293_72953195_3532_CDS_ENSMUSG00000033487_ENSMUST00000089017|mouse|control|control (ssRNA)
RNA: GGGAGUUCUACAGUCCGACGAUCAUCUUUUCCCACCAUAACUUGAAGAUUAUAAAUAACUGGGUCACCCUUCAUUGGCUGUAAAUAUUCCCAUGUAAUUUCACAAAUGUGAUCAUUUAUUUUCUCUAUUUUGGGGGCUUUCAACAACAGAGGAUUGAGCAUCA
B6: chr4:184614817:184614818:+_ENSG00000168538_ENST00000334690|hu_hu|FALSE|FALSE (ssRNA)
RNA: GGGAGUUCUACAGUCCGACGAUCGGUGAGCUUCACAUCUCUGAUUUGGGUCUUUUCAUGGGACUGAACAGUCACAACCAAACAAUACAUUUCAUUAGUCAGUGCAGGGGGUUCAUGUAGCAGAUGUACAGAAAUGUUUGGGACCAACAGAGGAUUGAGCAUCA
B7: 36958300_36958420_972_CDS_ENSMUSG00000029190_ENSMUST00000132383|mouse|control|control (ssRNA)
RNA: GGGAGUUCUACAGUCCGACGAUCAGUACCUGCUGCGAGGUAUGUUCUGUGGAUAUUACUGUUACUGAUACACAGACCACGCACAGAGUCAGACAAGUCUUCCACUGCCUCUGCUGUCAGAGUACUUGUAUCUUCCCUGUUUCGCAACAGAGGAUUGAGCAUCA
B8: chr15:58001004:58001005:+_ENSG00000255529_ENST00000299638|hu_mus|FALSE|FALSE (ssRNA)
RNA: GGGAGUUCUACAGUCCGACGAUCGUCUACAUCGGUGUCAGCUCUUGUGGUUGCUUUUUGCCUUAGCUUACAGUCUACACUAACAGGAUGAAACAGUUCACUUCUCCCUCUAACCUCUUCACGUUCUGAAAUGGCAGCUUUCAGCAACAGAGGAUUGAGCAUCA
B9: chrX:34421674:34421675:+_ENSMUSG00000016308_ENSMUST00000016452|mus_mus|FALSE|FALSE (ssRNA)
RNA: GGGAGUUCUACAGUCCGACGAUCGAACAUCUUAGAGACAAAUCUAACAGUAGGUGGCUUAUUAGGAUACUCUUCAGUGAAUUCAAUUGUAAGCUUAAAUGUUCCAUCCUCAAACGGGGUCCCUUCGGGCCCAAAAAUGACCGCCAACAGAGGAUUGAGCAUCA
B10: chr10:106027121:106027122:+_ENSG00000148834_ENST00000369713|hu_mus|FALSE|FALSE (ssRNA)
RNA: GGGAGUUCUACAGUCCGACGAUCGGCCUCGGGGCUGUCCUGUAGGUAGAGAUUUAAGUACUCGCGGUAGGUCUUGGCAUCAAUUUUGUGAGAGGAUGCCACAGGGUCUUGCUGCAUGGCCGCCAUCCAGAGCUUGAGCUUGGGCAACAGAGGAUUGAGCAUCA
B11: 76008110_76027685_211_3pUTR_ENSG00000078687_ENST00000588847|human|control|control (ssRNA)
RNA: GGGAGUUCUACAGUCCGACGAUCGUUGCUGCUUGAGAUAGUGCUGGUGGAAGUACUGGUACUGGUACCGGCAGGUUGGGGCUGGCUUGAACAGGUCUUAGUAGGUUCUGGCACUGUAGCGAUGAGUCUUUCUGCCCAACUCUACAACAGAGGAUUGAGCAUCA
B12: 103941475_103946771_1592_CDS_ENSG00000075413_ENST00000216288|human|control|control (ssRNA)
RNA: GGGAGUUCUACAGUCCGACGAUCGCAAACAUAAGUAUUUCGUCGUGUCAUUCCACCAGAUGCUGUGUUACUACUAGGGACAGUGGAGCUUUUCUUGCGUUCAGGAAUAUCCGCCUUAUUAGGAUUACUUGCAUUCCCAAGCAUCAACAGAGGAUUGAGCAUCA
B13: chr1:163117127:163117128:-_ENSG00000143248_ENST00000313961|hu_mus|hu_hu_hu_mus_False|38_68 (ssRNA)
RNA: GGGAGUUCUACAGUCCGACGAUCUGCUACAAAGGAUGUAACUCAACUCACAGGGCAACUUUUGGAAGCCUGGCUAAAUGACUACUUGAUUAGCUCCUGAUAAAACUCAGAGCGCACAAAGCGGGGCAGAGAAUCCUUCUCCAUCAACAGAGGAUUGAGCAUCA
B14: chrX:20248820:20248821:+_ENSMUSG00000001924_ENSMUST00000001989|mus_mus|mus_mus_mus_hu_True|68_68 (ssRNA)
RNA: GGGAGUUCUACAGUCCGACGAUCGGCGAAGUCCGUCACCACAAAGUCAGGUUCUGCCAGUGAGGCCGGCAAGGAUUUAAAGCUAAUCUUCUUAGGUACUUUGACCUGACUGACGAUGCCUCCACGGAUGUAGUCGGAGAAGUUCAACAGAGGAUUGAGCAUCA

The binders below were run against T1, UNK ZnF1-3 (assay: nsRBNS (natural sequence RNA bind-n-seq); RBNS binding buffer (assumed for nsRBNS): 25 mM Tris pH 7.5, 150 mM KCl, 3 mM MgCl2, 0.01% Triton X-100, 500 ug/ml BSA, 20 U/ml SUPERase-In, 4 C; UNK is unkempt and MSI1 is Musashi-1; names of the RNAs are library labels; protein concentration not given here; high values mean tight binding).

Q: For B1, which binding signal is on record?
A: The binding signal was 0.853 enrichment R.

Q: How did the binding signal turn out when B2 was run?
A: The binding signal was 1.58 enrichment R.

Q: B3 was tested. Which binding signal did it give?
A: Its binding signal is 1.06 enrichment R.

Q: How did the binding signal turn out when B4 was run?
A: The binding signal was 1.31 enrichment R.

Q: For B5, which binding signal is on record?
A: The binding signal was 1.14 enrichment R.

Q: Which binding signal does the source give for B6 here?
A: The binding signal was 2.64 enrichment R.

Q: Which binding signal does the source give for B7 here?
A: Its binding signal is 0.618 enrichment R.

Q: How did the binding signal turn out when B8 was run?
A: The binding signal was 0.568 enrichment R.

Q: Which binding signal does the source give for B9 here?
A: Its binding signal is 1.02 enrichment R.

Q: Which binding signal does the source give for B10 here?
A: Its binding signal is 2.08 enrichment R.

Q: With B11 as the binder, how does the binding signal read?
A: The binding signal was 0.681 enrichment R.

Q: Which binding signal does the source give for B12 here?
A: Its binding signal is 0.84 enrichment R.

Q: For B13, which binding signal is on record?
A: The binding signal was 1.03 enrichment R.

Q: Which binding signal does the source give for B14 here?
A: The binding signal was 0.878 enrichment R.
